# This is one part of the list. The data describe in vitro nicking of single-stranded DNA by Rep domains (3 µM enzyme, 1 h, 37 °C); shown is the middle of each 90-letter strand. A value is the log2 ratio of uncut reads to the pool without enzyme; strong cutting gives strongly negative numbers. There is no active / inactive call. Counts are relative to all reads; where an enzyme cuts many sequences, the uncut ones exceed 0.
# Tests used:
# Assay in all cases: uncleaved DNA left, log2 of reads against the no-enzyme library (log2 ratio); higher = less cleavage (more negative = more Rep cleavage of the k-mer); sequences stand for … in CTCGTCCG…ACCGGAGA
# [1] = system: T1, Rep nickase domain of Muscovy duck circovirus
# T1 sequence (residues 1-111, tag not shown): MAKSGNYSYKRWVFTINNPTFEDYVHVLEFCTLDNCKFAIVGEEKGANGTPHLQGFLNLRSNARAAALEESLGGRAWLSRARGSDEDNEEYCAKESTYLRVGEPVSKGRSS
# Method: (§1)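 A pool of 90-nt single-stranded DNAs with seven random bases just before the constant AC of the nick site (name = the seven bases) was cut by 3 µM recombinant His6-SUMO-tagged Rep nickase domain (300 nM DNA, 50 mM HEPES pH 8.0, 50 mM NaCl, 1 mM MnCl2, 1 h, 37 °C, three replicates). Uncut DNA was amplified and sequenced.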
# [2] = system: T2, Rep nickase domain of banana bunchy top virus
# T2 sequence (residues 1-94, tag not shown): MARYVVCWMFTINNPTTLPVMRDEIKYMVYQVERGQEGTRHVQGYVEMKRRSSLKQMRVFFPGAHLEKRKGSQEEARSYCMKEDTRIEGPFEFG
# Method: as §1
# [3] = system: T3, Rep nickase domain of cabbage leaf curl virus
# T3 sequence (residues 1-116, tag not shown): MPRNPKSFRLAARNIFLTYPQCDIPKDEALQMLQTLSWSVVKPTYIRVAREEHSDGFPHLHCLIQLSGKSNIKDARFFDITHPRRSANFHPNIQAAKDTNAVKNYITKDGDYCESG
# Method: as §1
# [4] = system: T4, Rep nickase domain of chickpea chlorotic dwarf virus
# T4 sequence (residues 1-124, tag not shown): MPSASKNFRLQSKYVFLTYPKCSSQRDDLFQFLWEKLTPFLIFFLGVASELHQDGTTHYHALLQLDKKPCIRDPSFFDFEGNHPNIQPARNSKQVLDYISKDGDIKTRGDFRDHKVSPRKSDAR
# Method: as §1
# [5] = system: T5, Rep nickase domain of faba bean necrotic yellows virus
# T5 sequence (residues 1-98, tag not shown): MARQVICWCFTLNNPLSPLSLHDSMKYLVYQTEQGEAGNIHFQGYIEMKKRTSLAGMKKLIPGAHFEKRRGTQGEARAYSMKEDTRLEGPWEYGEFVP
# Method: as §1
# [6] = system: T6, Rep nickase domain of maize striate mosaic virus
# T6 sequence (residues 1-117, tag not shown): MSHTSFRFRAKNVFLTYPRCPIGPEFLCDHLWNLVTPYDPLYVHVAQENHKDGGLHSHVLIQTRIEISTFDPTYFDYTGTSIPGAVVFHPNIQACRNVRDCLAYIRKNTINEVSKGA
# Method: as §1
# [7] = system: T7, Rep nickase domain of porcine circovirus 2
# T7 sequence (residues 2-116, tag not shown): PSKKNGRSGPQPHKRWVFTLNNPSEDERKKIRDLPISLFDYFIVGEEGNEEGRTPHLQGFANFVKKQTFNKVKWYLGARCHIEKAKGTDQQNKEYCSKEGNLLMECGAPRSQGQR
# Method: as §1
# [8] = system: T8, Rep nickase domain of tomato golden mosaic virus
# T8 sequence (residues 1-124, tag not shown): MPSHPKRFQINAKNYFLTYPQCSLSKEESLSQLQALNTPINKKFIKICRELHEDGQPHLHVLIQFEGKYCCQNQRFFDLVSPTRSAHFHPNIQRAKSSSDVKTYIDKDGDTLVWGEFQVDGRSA
# Method: as §1
# [9] = system: T9, Rep nickase domain of tomato yellow leaf curl virus
# T9 sequence (residues 1-136, tag not shown): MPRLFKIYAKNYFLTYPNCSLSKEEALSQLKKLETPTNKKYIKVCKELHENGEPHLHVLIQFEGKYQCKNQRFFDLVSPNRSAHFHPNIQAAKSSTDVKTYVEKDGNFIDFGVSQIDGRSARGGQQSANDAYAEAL
# Method: as §1
# [10] = system: T10, Rep nickase domain of wheat dwarf virus
# T10 sequence (residues 1-137, tag not shown): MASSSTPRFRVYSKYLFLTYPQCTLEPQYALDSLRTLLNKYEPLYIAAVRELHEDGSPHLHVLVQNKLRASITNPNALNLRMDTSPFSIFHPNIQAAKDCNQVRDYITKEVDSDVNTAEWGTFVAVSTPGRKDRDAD
# Method: as §1
Sequence,uncleaved DNA left (log2) [1],uncleaved DNA left (log2) [2],uncleaved DNA left (log2) [3],uncleaved DNA left (log2) [4],uncleaved DNA left (log2) [5],uncleaved DNA left (log2) [6],uncleaved DNA left (log2) [7],uncleaved DNA left (log2) [8],uncleaved DNA left (log2) [9],uncleaved DNA left (log2) [10]
TAATACC,-3.1,-0.322,-3.9,-3.45,-1.78,-2.99,-3.63,-3.72,-0.121,-3.52
ATAATTA,-0.0356,-0.0248,0.183,-1.4,0.112,-0.781,-0.0751,0.186,0.0978,0.148
TGACGGT,0.0276,0.0689,0.211,0.485,-0.13,1.3,-0.259,0.0803,0.0164,-0.0491
GTCAGAC,-0.0375,0.0588,0.495,1.13,0.0962,1.65,0.192,0.076,0.0493,0.0893
TCCGTGA,-0.022,0.0492,0.463,0.646,0.0169,0.395,0.095,-0.0253,0.0808,0.00105
ATGACAG,0.093,0.0257,-0.175,0.511,0.104,-0.555,0.254,0.115,0.112,0.178
ACACACG,0.0309,-0.0259,-0.458,0.792,0.0644,-0.177,0.137,-0.0176,-0.0271,-0.165
AATTCGG,-0.0199,-0.0124,0.474,1.35,0.0502,1.49,-0.0101,0.137,-0.0956,0.102
GCGTATG,0.0926,-0.096,0.00278,0.511,0.202,1.03,0.294,0.205,0.0273,0.032
TTGGGTA,-0.121,-0.142,-0.118,0.00783,-0.0389,-0.179,-0.0887,-0.237,-0.156,-0.232
CTGCAAA,-0.0391,0.188,-0.0891,-0.133,0.0674,-1.04,0.0565,-0.0555,0.0433,0.0803
TCACATA,-0.022,-0.0261,-0.0233,-1,-0.0999,-0.53,-0.0555,-0.0689,-0.0443,-0.0131
GGCTATA,-0.0458,0.0395,0.441,0.976,0.0899,1.75,0.0555,0.03,0.044,0.197
CAAGGAG,0.0462,-0.0519,-0.0879,0.598,-0.00474,-0.362,0.2,0.0917,-0.0744,-0.0359
GCGAAGG,0.0255,0.07,0.178,0.832,0.0442,1.34,0.228,0.16,0.139,0.0834
